Test results: PMC3823767, “The ATP-Mediated Regulation of KaiB-KaiC Interaction in the Cyanobacterial Circadian Clock” (PLoS ONE, 2013)
Results are given in words; binding and its absence hold for the method and conditions named. Some results given as binding are weak or reduced against the parent protein; the word gives no strength. Values belong to the binder of their own block, whether it stands above or below them.

Legend:
[1] = target: T1, KaiC_(S431D&T432D) (KaiCDD) (Thermosynechococcus elongatus BP-1 (printed: Thermocynechococcus elongatus BP-1)) (UniProt Q79V60); assay: condition: only 1 mM ATP without MgCl2, KaiCDD in the preformed complex with KaiB_(1-94); native gel or EMSA; preformed KaiB1-94-KaiC monomer complex (15 μM KaiB1-94, 5 μM KaiC, 4 °C, 16 h), then 1 mM ATP without MgCl2, 4 °C, 6 h; both purified
T1 sequence: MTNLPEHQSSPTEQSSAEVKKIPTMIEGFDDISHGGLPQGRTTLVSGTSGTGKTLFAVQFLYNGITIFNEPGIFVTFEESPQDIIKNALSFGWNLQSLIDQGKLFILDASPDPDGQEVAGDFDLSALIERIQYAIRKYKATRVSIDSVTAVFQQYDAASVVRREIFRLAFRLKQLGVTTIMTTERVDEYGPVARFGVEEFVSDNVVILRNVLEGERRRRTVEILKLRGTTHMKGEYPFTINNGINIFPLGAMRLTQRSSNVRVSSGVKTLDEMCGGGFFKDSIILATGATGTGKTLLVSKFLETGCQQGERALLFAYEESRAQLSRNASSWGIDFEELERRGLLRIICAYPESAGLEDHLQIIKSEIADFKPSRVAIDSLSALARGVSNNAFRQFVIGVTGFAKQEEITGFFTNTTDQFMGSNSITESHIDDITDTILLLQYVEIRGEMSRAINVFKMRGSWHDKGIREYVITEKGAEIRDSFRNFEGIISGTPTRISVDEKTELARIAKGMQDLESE

[2] = target: T1, KaiC_(S431D&T432D) (KaiCDD) (Thermosynechococcus elongatus BP-1 (printed: Thermocynechococcus elongatus BP-1)); assay: native gel or EMSA; KaiCDD hexamerised with Mg-ATPγS, with KaiB1-94 in the presence of 1 mM Mg-ATPγS, 4 °C; both purified
[3] = target: T1, KaiC_(S431D&T432D) (KaiCDD) (Thermosynechococcus elongatus BP-1 (printed: Thermocynechococcus elongatus BP-1)); assay: native gel or EMSA; KaiCDD hexamerised with Mg-AMPPNP, with KaiB1-94 in the presence of 1 mM Mg-AMPPNP, 4 °C; both purified
[4] = target: T2, N-terminal domain mutant protein of KaiC, residues 1 to 268 (KaiCN) (Thermosynechococcus elongatus BP-1 (printed: Thermocynechococcus elongatus BP-1)) (UniProt Q79V60); assay: SEC; 7.5 μM KaiB1-94 with 2.5 μM KaiCN hexamer and Mg-ATP, 4 °C, 6 h; Superdex 200 in reaction buffer with 0.5 mM ATP and 5 mM MgCl2; KaiB in peak fractions detected by immunoblot; both purified
T2 sequence: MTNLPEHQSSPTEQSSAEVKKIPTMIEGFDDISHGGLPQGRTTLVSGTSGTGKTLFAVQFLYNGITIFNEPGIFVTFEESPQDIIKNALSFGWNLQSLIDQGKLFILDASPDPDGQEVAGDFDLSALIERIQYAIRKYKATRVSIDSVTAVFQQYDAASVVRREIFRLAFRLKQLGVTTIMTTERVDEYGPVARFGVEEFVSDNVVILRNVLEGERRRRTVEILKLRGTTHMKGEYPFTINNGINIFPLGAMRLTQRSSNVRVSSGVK

[5] = target: T3, KaiC_(S431A&T432A) (KaiCAA) (Thermosynechococcus elongatus BP-1 (printed: Thermocynechococcus elongatus BP-1)) (UniProt Q79V60); assay: native gel or EMSA; KaiC hexamer (formed with Mg-ATP, 1 μM) with 5 μM KaiB1-94 in the presence of Mg-ATP at 4 °C; native PAGE, complex bands checked by second-dimension SDS-PAGE; both purified
T3 sequence: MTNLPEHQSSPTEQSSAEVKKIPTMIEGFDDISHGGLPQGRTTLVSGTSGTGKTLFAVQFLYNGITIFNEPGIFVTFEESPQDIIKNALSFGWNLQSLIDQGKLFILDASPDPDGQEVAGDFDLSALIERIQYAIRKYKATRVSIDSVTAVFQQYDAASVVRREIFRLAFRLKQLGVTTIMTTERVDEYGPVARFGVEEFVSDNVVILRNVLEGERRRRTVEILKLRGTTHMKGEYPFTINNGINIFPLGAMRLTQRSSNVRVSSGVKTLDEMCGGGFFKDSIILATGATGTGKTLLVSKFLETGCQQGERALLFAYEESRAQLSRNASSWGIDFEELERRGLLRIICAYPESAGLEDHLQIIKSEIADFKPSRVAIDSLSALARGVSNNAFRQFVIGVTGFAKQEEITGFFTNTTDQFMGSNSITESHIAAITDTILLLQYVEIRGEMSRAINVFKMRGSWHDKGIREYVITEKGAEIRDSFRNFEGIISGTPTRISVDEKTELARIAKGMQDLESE

[6] = target: T2, N-terminal domain mutant protein of KaiC, residues 1 to 268 (KaiCN) (Thermosynechococcus elongatus BP-1 (printed: Thermocynechococcus elongatus BP-1)); assay: as above
[7] = target: T1, KaiC_(S431D&T432D) (KaiCDD) (Thermosynechococcus elongatus BP-1 (printed: Thermocynechococcus elongatus BP-1)); assay: condition: only KaiCDD hexamerised with ATP without Mg2+; native gel or EMSA; KaiCDD hexamerised with ATP without Mg2+ (KaiCDD^6mer (ATP)), with KaiB1-94 in the presence of 1 mM ATP, 4 °C; both purified
[8] = target: T4, KaiC_(K53H/DD) (Thermosynechococcus elongatus BP-1 (printed: Thermocynechococcus elongatus BP-1)) (UniProt Q79V60); assay: condition: only KaiC hexamerised with Mg-ATP (5 μM KaiB_(1-94), 1 μM KaiC hexamer); native gel or EMSA; KaiC hexamer (formed with Mg-ATP, 1 μM) with 5 μM KaiB1-94 in the presence of Mg-ATP at 4 °C; native PAGE, complex bands checked by second-dimension SDS-PAGE; both purified
T4 sequence: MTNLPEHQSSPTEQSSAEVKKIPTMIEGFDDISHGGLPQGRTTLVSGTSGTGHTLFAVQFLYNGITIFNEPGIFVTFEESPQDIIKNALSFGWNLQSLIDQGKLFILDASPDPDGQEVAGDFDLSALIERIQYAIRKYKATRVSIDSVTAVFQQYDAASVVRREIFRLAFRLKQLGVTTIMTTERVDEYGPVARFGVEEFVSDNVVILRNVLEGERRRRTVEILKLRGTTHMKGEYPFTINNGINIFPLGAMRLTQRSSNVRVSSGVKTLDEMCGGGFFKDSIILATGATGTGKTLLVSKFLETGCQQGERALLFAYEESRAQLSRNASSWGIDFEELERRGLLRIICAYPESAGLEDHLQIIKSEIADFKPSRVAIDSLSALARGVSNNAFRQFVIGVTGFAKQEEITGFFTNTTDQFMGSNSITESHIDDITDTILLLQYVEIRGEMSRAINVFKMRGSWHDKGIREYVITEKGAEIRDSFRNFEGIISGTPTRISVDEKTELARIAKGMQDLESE

[9] = target: T1, KaiC_(S431D&T432D) (KaiCDD) (Thermosynechococcus elongatus BP-1 (printed: Thermocynechococcus elongatus BP-1)); assay: native gel or EMSA; monomeric KaiC (5 μM; 1 μM for the concentration series) with KaiB1-94 or 7.5 μM KaiBWT in reaction buffer without ATP, 4 °C, 6 h (KaiC_(C/DD) also at 25 °C); 10 % native gel, CBB, densitometry; both purified

- binding [1]: no binding
B1: KaiC_(S431D&T432D) (KaiCDD) (natural protein, UniProt Q79V60 1-518, looked up)
chain: MTNLPEHQSSPTEQSSAEVKKIPTMIEGFDDISHGGLPQGRTTLVSGTSGTGKTLFAVQFLYNGITIFNEPGIFVTFEESPQDIIKNALSFGWNLQSLIDQGKLFILDASPDPDGQEVAGDFDLSALIERIQYAIRKYKATRVSIDSVTAVFQQYDAASVVRREIFRLAFRLKQLGVTTIMTTERVDEYGPVARFGVEEFVSDNVVILRNVLEGERRRRTVEILKLRGTTHMKGEYPFTINNGINIFPLGAMRLTQRSSNVRVSSGVKTLDEMCGGGFFKDSIILATGATGTGKTLLVSKFLETGCQQGERALLFAYEESRAQLSRNASSWGIDFEELERRGLLRIICAYPESAGLEDHLQIIKSEIADFKPSRVAIDSLSALARGVSNNAFRQFVIGVTGFAKQEEITGFFTNTTDQFMGSNSITESHIDDITDTILLLQYVEIRGEMSRAINVFKMRGSWHDKGIREYVITEKGAEIRDSFRNFEGIISGTPTRISVDEKTELARIAKGMQDLESE
notes: KaiC, Thermosynechococcus elongatus BP-1, subunit of 518 amino acid residues, aspartate at the two phosphorylation sites; Used as monomer (KaiC^1mer, no ATP) and as hexamer (KaiC^6mer; with Mg-ATP, ATP, Mg-AMPPNP, Mg-ATPγS or Mg-ADP-AlFx); the assay tells which; also called KaiCDD^1mer; KaiCDD^6mer

- binding [4]: binds weakly
- binding [7]: no binding
- binding [8]: no binding
B2: mutant KaiB with a C-terminal deletion of residues 95 to 108 (KaiB1-94) (domain or fragment, UniProt Q79V61 1-94, looked up)
chain: MAPLRKTYVLKLYVAGNTPNSVRALKTLNNILEKEFKGVYALKVIDVLKNPQLAEEDKILATPTLAKVLPPPVRRIIGDLSNREKVLIGLDLLY
notes: KaiB, Thermosynechococcus elongatus BP-1, residues 1-94 (C-terminal residues 95-108 deleted)
- binding [2]: no binding (condition: KaiCDD hexamerised with Mg-ATPγS)
- binding [3]: no binding (condition: KaiCDD hexamerised with Mg-AMPPNP)
- binding [5]: no binding (tested: 5 μM KaiB_(1-94), 1 μM KaiC hexamer)
- binding [6]: no binding (condition: KaiCN hexamerised with Mg-ATP)

- binding [9]: binds weakly
B3: wild-type KaiB (KaiBWT) (natural protein, UniProt Q79V61 1-108, looked up)
chain: MAPLRKTYVLKLYVAGNTPNSVRALKTLNNILEKEFKGVYALKVIDVLKNPQLAEEDKILATPTLAKVLPPPVRRIIGDLSNREKVLIGLDLLYEEIGDQAEDDLGLE
notes: KaiB, Thermosynechococcus elongatus BP-1, wild type, subunit of 108 amino acid residues; also called KaiBWT^4mer; KaiB^4mer
